{"source": "PubChem BioAssay AID463173", "about": "(ICCB-Longwood Screening Facility, Harvard Medical School, 2010)", "note": "Hit rate of the full screen: of about 52,000 compounds, about 1,700 (3.3%) were called active. Rule as the data show it: active = survival mostly below about 52% (no sharp cut-off); inactive = mostly above about 56%. The list shows a part of the results.", "data": [{"tested_on": "Wild type", "experiment": "growth inhibition of S. aureus wild type versus tarO mutant, primary screen, teichoic acid synthesis inhibitors, RN4220, OD600 (AID 463173)", "settings": "S. aureus RN4220 wild type/DeltatarO growth, OD600, 18 h, active compounds read low, screened at 18.75 µg/mL (by protocol)", "values": [{"molecule": "Cc1ccc(-c2noc(-c3ccccc3NC(=O)C3CC(=O)N(c4ccc(C)cc4)C3)n2)cc1", "note": "(configuration not stated)", "survival": "inactive: 86%"}, {"molecule": "COC(=O)c1sc(-c2ccccc2)cc1NC(=O)Nc1ccc(Cl)cc1", "survival": "active: 4%"}, {"molecule": "CC1=C(C(=O)NCc2ccccc2C)C2(CCCCCC2)OC1=O", "survival": "inactive: 73%"}, {"molecule": "CCCCN(Cc1cc2ccccc2[nH]c1=O)C(=O)c1cccc(Cl)c1", "survival": "inactive: 87%"}, {"molecule": "O=C(Oc1ccc(F)cc1)c1nc(SCc2ccc(F)cc2)ncc1Cl", "survival": "inactive: 87%"}, {"molecule": "CCn1ccc(C(=O)Nc2sc(C(=O)OC)c(C)c2C(=O)OC)n1", "survival": "inactive: 100%"}, {"molecule": "Cc1cc(OCCn2c(CCNC(=O)C3CCCCC3)nc3ccccc32)ccc1Cl", "survival": "inactive: 67%"}, {"molecule": "Cc1ccc(-c2nc(SCC(=O)NCC3CCCO3)c3c(=O)n(C)c(=O)n(C)c3n2)cc1", "note": "(configuration not stated)", "survival": "inactive: 73%"}, {"molecule": "Cc1ccccc1N1CCN(S(=O)(=O)c2ccccc2)CC1", "survival": "inactive: 21%"}, {"molecule": "Oc1c(C(c2ccccc2F)N2CCN(c3ccccc3F)CC2)sc2nc(-c3ccco3)nn12", "note": "(configuration not stated)", "survival": "inactive: 79%"}, {"molecule": "CCOC(=O)CSC1=Nc2ccccc2C2=NC(CCC(=O)NCc3ccc(OC)cc3)C(=O)N12", "note": "(configuration not stated)", "survival": "inactive: 88%"}, {"molecule": "N#Cc1ccccc1NC(=O)CNCC1CCCO1", "note": "(configuration not stated)", "survival": "inactive: 93%"}, {"molecule": "COc1ccc(C)cc1NS(=O)(=O)c1ccc2c3c(cccc13)C(=O)N2", "survival": "inactive: 74%"}, {"molecule": "COc1ccccc1Cn1ccn(Cc2ccc(C)cc2)c(=O)c1=O", "survival": "inactive: 109%"}, {"molecule": "Cc1cc(C)c(NC(=O)CSc2nccn2-c2cccc(Cl)c2)c(C)c1", "survival": "inactive: 102%"}, {"molecule": "COc1ccc(CNC(=O)CCC2N=C3c4ccccc4N=C(SCc4ccccc4F)N3C2=O)cc1", "note": "(configuration not stated)", "survival": "active: 10%"}, {"molecule": "CCCc1cc(N2CCN(c3cccc(C)c3C)CC2)n2cnnc2n1", "survival": "inactive: 75%"}, {"molecule": "CCOC(=O)C(Cc1ccccc1)NC(=O)CCc1c(C)nc2nc(C)nn2c1C", "note": "(configuration not stated)", "survival": "inactive: 72%"}, {"molecule": "COc1ccc(NC(=O)c2sc3nc4c(cc3c2N)CCCCCC4)cc1", "survival": "inactive: 132%"}, {"molecule": "COc1cccc(-n2c(-c3ccccc3F)nc3c(cnn3-c3ccc(C)cc3)c2=O)c1", "survival": "inactive: 78%"}, {"molecule": "Cc1ccccc1NC(=O)CSc1nc(-c2ccccc2)cn1-c1ccccc1F", "survival": "inactive: 85%"}, {"molecule": "O=C(NC1CCCC1)c1ccc2c(=O)n(Cc3ccccc3)c(SCc3cccc([N+](=O)[O-])c3)nc2c1", "survival": "inactive: 124%"}, {"molecule": "Cc1ccccc1OCc1nc2c3cnn(-c4ccccc4F)c3ncn2n1", "survival": "inactive: 104%"}, {"molecule": "COCCNC(=O)CSc1nc2cc3c(cc2c(=O)n1CCCC(=O)NCc1ccc2c(c1)OCO2)OCO3", "survival": "inactive: 71%"}, {"molecule": "COc1ccc(CNC(=O)CSc2ncc3c(n2)-c2cc(Cl)ccc2N(Cc2ccccc2)S3(=O)=O)cc1", "survival": "inactive: 74%"}, {"molecule": "CCOc1ccccc1C(=O)Nc1nncs1", "survival": "inactive: 100%"}, {"molecule": "CCc1ccc(OCC(=O)Nc2cc(-c3ccc(C)cc3)no2)cc1", "survival": "inactive: 90%"}, {"molecule": "CCOC(=O)Cn1c(=O)cc(C(F)(F)C(F)(F)F)c2c(C)nn(CC)c21", "survival": "inactive: 90%"}, {"molecule": "Cc1ccc(Cl)cc1N1CCN(C(=O)Cn2c(-c3cccs3)cc3cc(F)ccc32)CC1", "survival": "inactive: 68%"}, {"molecule": "CCOc1ccc(CNC(=O)C2CCN(C(=O)N3CC(CC)Oc4ccccc43)CC2)cc1", "note": "(configuration not stated)", "survival": "inactive: 119%"}, {"molecule": "Cc1c(Cl)cccc1NC(=O)N1CCOc2ccccc21", "survival": "inactive: 99%"}, {"molecule": "COC(=O)c1sccc1S(=O)(=O)N1CCN(c2ccc(C)cc2C)CC1", "survival": "inactive: 59%"}, {"molecule": "CCCNC(=O)c1ccccc1NC(=O)c1nsc2ccccc12", "survival": "inactive: 98%"}, {"molecule": "COc1cccc(NC(=O)CSc2ncc3c(n2)-c2ccc(Cl)cc2N(C)S3(=O)=O)c1", "survival": "active: 10%"}, {"molecule": "CC(C)(C)c1ccc(C(=O)NC2(C(F)(F)F)NC(=O)N(CCc3ccccc3)C2=O)cc1", "note": "(configuration not stated)", "survival": "inactive: 43%"}, {"molecule": "S=c1[nH]nc(Cc2ccccc2)n1Cc1ccccc1", "survival": "inactive: 108%"}, {"molecule": "Cc1ccc(OCC(=O)Nc2ccc3nc(SCC(=O)Nc4ccc(C)cc4C)sc3c2)cc1", "survival": "inactive: 77%"}, {"molecule": "Cc1ccc(NC(=O)NCCOCCn2c(=O)oc3ccccc32)cc1C", "survival": "inactive: 80%"}, {"molecule": "CCOc1ccc(CNC(=O)c2ccccc2NC(=O)c2nsc3ccccc23)cc1", "survival": "active: -6%"}, {"molecule": "CCOc1ccccc1NC(=O)C(=O)NCCc1sc2nc(-c3ccc(OC)cc3)nn2c1C", "survival": "inactive: 84%"}, {"molecule": "Cc1ccc(Cn2c(=O)n(-c3ccc(C)cc3)c(=O)c3c2c2cc(C)ccc2n3C)cc1", "survival": "inactive: 64%"}, {"molecule": "O=c1c(Cl)c(NC2CC2)cnn1-c1ccccc1", "survival": "inactive: 113%"}, {"molecule": "COC(=O)c1ccc(NC(=O)CN2CCN(S(=O)(=O)c3ccc(Br)cc3)CC2)cc1", "survival": "inactive: 85%"}, {"molecule": "COc1ccc(S(=O)(=O)N(CC(=O)Nc2cc(C)ccc2OC)Cc2ccccc2)cc1", "survival": "inactive: 69%"}, {"molecule": "CCOc1ccccc1NS(=O)(=O)c1ccc2[nH]c3c(c2c1)CCCCC3", "survival": "inactive: 66%"}, {"molecule": "CCOc1ccc(CCNC(=O)c2cc3c(=O)n(C)c4ccccc4c3n2C)cc1OCC", "survival": "inactive: 122%"}, {"molecule": "Cc1c(-c2ccc(Cl)cc2)c(=O)oc2c(CN3CCN(CCO)CC3)c(O)ccc12", "survival": "inactive: 71%"}, {"molecule": "O=C(CSc1cn(CC(=O)N2CCCCC2)c2ccccc12)NCc1ccc(F)cc1", "survival": "inactive: 92%"}, {"molecule": "CCCN(CCC)CCCNC(=O)C1CCN(c2nc3ccc(CC)cc3s2)CC1", "survival": "inactive: 61%"}, {"molecule": "Cc1ccc(NC(=O)Nc2ccc3nc(N4CCN(C)CC4)cc(C)c3c2)cc1F", "survival": "inactive: 72%"}, {"molecule": "N#C/C(=C\\c1cccc(F)c1)c1nc(-c2cc3c(ccc4ccccc43)oc2=O)cs1", "survival": "inactive: 84%"}, {"molecule": "CCOc1cc(C2c3c(oc4cc(C)cc(C)c4c3=O)C(=O)N2CCO)ccc1O", "note": "(configuration not stated)", "survival": "inactive: 81%"}, {"molecule": "Cc1c(Cl)cccc1NC(=O)C1CCCN(c2nnc(-n3c(C)ccc3C)s2)C1", "note": "(configuration not stated)", "survival": "inactive: 77%"}, {"molecule": "O=C(NCc1ccc2c(c1)OCO2)c1ccc2c(c1)N(Cc1cccc(Cl)c1)C(=O)c1ccccc1S2=O", "note": "(configuration not stated)", "survival": "inactive: 78%"}, {"molecule": "COc1ccc(CNC(=O)Cn2c(=O)nc(-c3ccccc3F)c3cc(Cl)ccc32)cc1", "survival": "inactive: 59%"}, {"molecule": "CCN(CC)C(=O)CSc1nc2cc3c(cc2c(=O)n1CCCCCC(=O)NCc1ccc(OC)cc1)OCO3", "survival": "active: -3%"}, {"molecule": "CCN(CCCNC(=O)c1ccc(Sc2ccc(F)cc2)c(NC(C)=O)c1)c1ccccc1", "survival": "inactive: 72%"}]}]}
